This note sets out measurements from the supplement of paper PMC4967469.

IC50 is the fitted dose that halves viability relative to control wells, and lower means more sensitive; a limit (>, <) means that the fit lies beyond the doses tested. The AUC spans the tested range (256-fold, ending at the top dose) of the same fit; it is 1 without any effect and falls as sensitivity rises.

Compound in the test: N#CC[C@H](C1CCCC1)n1cc(-c2ncnc3[nH]ccc23)cn1 [Ruxolitinib]
Briefly: Viability of human cancer cell lines after 72 h of drug (GDSC screen). As to the method: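 Human cancer cell lines in 384-well plates, medium with 10% serum, drug for 72 h over a 256-fold dose range (nine 2-fold or five 4-fold steps up to the top dose). Adherent lines were fixed and stained with the nucleic acid dye Syto60, suspension lines read with resazurin; signal relative to control wells, capped at 0 and 100%. One two-parameter sigmoid per drug and line, fitted in a mixed model over all curves with the slope shared within a line.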

Turning to “NCI-H2342 (lung adenocarcinoma, adherent, top dose 5.24 µM)”, the AUC was 0.986 and the IC50 – broadly, the concentration at which inhibition is half-maximal – was over 5.24 µM.
For the cell line “TE-6 (oesophagus, adherent, top dose 5.24 µM)”, the AUC was 0.986 and the IC50 was over 5.24 µM.
The matching figures for “G-MEL (melanoma, adherent, top dose 5.24 µM)”: 0.975 and over 5.24 µM.
On to “HCC-78 (lung adenocarcinoma, adherent, top dose 5.24 µM)”, for which the AUC amounted to 0.98 and the IC50 was over 5.24 µM.
Consider “HT-3 (cervix, adherent, top dose 5.24 µM)”, for which the AUC was 0.98 and the 50% inhibitory concentration (IC50) is over 5.24 µM.
The matching figures for “RH-41 (rhabdomyosarcoma, adherent, top dose 5.24 µM)”: 0.989 and over 5.24 µM.
For the cell line “IMR-5 (neuroblastoma, adherent, top dose 5.24 µM)”, the AUC is 0.987 and the 50% inhibitory concentration (IC50) is over 5.24 µM.
For “HCC-15 (lung squamous cell carcinoma, adherent, top dose 5.24 µM)”, in that order: 0.981 and over 5.24 µM.
As to “NCI-H69 (small cell lung carcinoma, suspension, top dose 5.24 µM)”, the AUC amounted to 0.979 and the IC50 is over 5.24 µM.
For “NCI-H2405 (lung adenocarcinoma, adherent, top dose 5.24 µM)”, in that order: 0.976 and over 5.24 µM.
The matching figures for “NALM-6 (B-cell leukaemia, suspension, top dose 5.24 µM)”: 0.975 and over 5.24 µM.
The matching figures for “SF295 (glioma, adherent, top dose 5.24 µM)”: 0.985 and over 5.24 µM.
“HD-MY-Z (Hodgkin lymphoma, adherent, top dose 5.24 µM)”: the AUC came to 0.984 and the IC50 was over 5.24 µM.
The matching figures for “HMV-II (melanoma, adherent, top dose 5.24 µM)”: 0.981 and over 5.24 µM.
For “PA-TU-8988T (pancreas, adherent, top dose 5.24 µM)”, the AUC is 0.987 and the IC50 is over 5.24 µM.
In the case of “BT-474 (breast, adherent, top dose 5.24 µM)”, the AUC came out at 0.986 and the IC50 is over 5.24 µM.
For “RCM-1 (large intestine, adherent, top dose 5.24 µM)”, in that order: 0.985 and over 5.24 µM.
In the case of “COR-L95 (small cell lung carcinoma, adherent, top dose 5.24 µM)”, the AUC was 0.966 and the 50% inhibitory concentration (IC50) is over 5.24 µM.
As to “DBTRG-05MG (glioma, adherent, top dose 5.24 µM)”, the AUC was 0.984 and the IC50 was over 5.24 µM.
For “SW1088 (glioma, adherent, top dose 5.24 µM)”, in that order: 0.982 and over 5.24 µM.
With “HSC-3 (head and neck, adherent, top dose 5.24 µM)”, the AUC came out at 0.99 and the IC50 is over 5.24 µM.
“CP50-MEL-B (melanoma, adherent, top dose 5.24 µM)”: the AUC worked out at 0.988 and the IC50 was over 5.24 µM.
In the case of “LAN-6 (neuroblastoma, adherent, top dose 5.24 µM)”, the AUC came to 0.978 and the IC50 was over 5.24 µM.
For the cell line “BV-173 (chronic myeloid leukaemia, suspension, top dose 5.24 µM)”, the AUC worked out at 0.976 and the IC50 was over 5.24 µM.
As for “NCI-H2029 (small cell lung carcinoma, adherent, top dose 5.24 µM)”, the AUC came out at 0.992 and the IC50 was over 5.24 µM.
For the cell line “CAL-62 (thyroid, adherent, top dose 5.24 µM)”, the AUC was found to be 0.985 and the concentration for half-maximal inhibition (IC50) is over 5.24 µM.
For “NCC021 (kidney, adherent, top dose 5.24 µM)”, in that order: 0.985 and over 5.24 µM.
For “NCI-H720 (lung carcinoid, suspension, top dose 5.24 µM)”, the AUC was determined as 0.981 and the IC50 is over 5.24 µM.
For “ES3 (Ewing sarcoma, adherent, top dose 5.24 µM)”, the AUC is 0.956 and the IC50 is over 5.24 µM.
The matching figures for “LNCaP-Clone-FGC (prostate, adherent, top dose 5.24 µM)”: 0.984 and over 5.24 µM.
For “COLO-678 (large intestine, semi-adherent, top dose 5.24 µM)”, in that order: 0.985 and over 5.24 µM.
For “CAPAN-1 (pancreas, adherent, top dose 5.24 µM)”, in that order: 0.986 and over 5.24 µM.
In the case of “PL4 (pancreas, adherent, top dose 5.24 µM)”, the AUC stood at 0.987 and the concentration for half-maximal inhibition (IC50) was over 5.24 µM.
The matching figures for “RCC-JW (kidney, adherent, top dose 5.24 µM)”: 0.986 and over 5.24 µM.
The matching figures for “MHH-NB-11 (neuroblastoma, adherent, top dose 5.24 µM)”: 0.976 and over 5.24 µM.
“ES-2 (ovary, adherent, top dose 5.24 µM)”: the AUC came to 0.991 and the IC50 was over 5.24 µM.
For “PCI-15A (head and neck, adherent, top dose 5.24 µM)”, in that order: 0.985 and over 5.24 µM.
The matching figures for “HT-1080 (fibrosarcoma, adherent, top dose 5.24 µM)”: 0.989 and over 5.24 µM.
The matching figures for “QGP-1 (pancreas, adherent, top dose 5.24 µM)”: 0.975 and over 5.24 µM.
Turning to “GMS-10 (glioma, adherent, top dose 5.24 µM)”, the AUC was 0.979 and the IC50 was over 5.24 µM.
Consider “MFE-296 (endometrium, adherent, top dose 5.24 µM)”, for which the AUC was 0.985 and the IC50 was over 5.24 µM.
In the case of “COR-L23 (large cell lung carcinoma, adherent, top dose 5.24 µM)”, the AUC stood at 0.982 and the IC50 was over 5.24 µM.
As for “OAW-28 (ovary, adherent, top dose 5.24 µM)”, the AUC was found to be 0.981 and the half-inhibitory concentration (IC50) is over 5.24 µM.
For “UACC-893 (breast, adherent, top dose 5.24 µM)”, in that order: 0.981 and over 5.24 µM.
In the case of “RERF-LC-KJ (lung adenocarcinoma, adherent, top dose 5.24 µM)”, the AUC worked out at 0.986 and the IC50 was over 5.24 µM.
For “U-118-MG (glioma, adherent, top dose 5.24 µM)”, in that order: 0.985 and over 5.24 µM.
For “HCC1187 (breast, suspension, top dose 5.24 µM)”, in that order: 0.989 and over 5.24 µM.
For “451Lu (melanoma, adherent, top dose 5.24 µM)”, in that order: 0.989 and over 5.24 µM.
“KYSE-180 (oesophagus, adherent, top dose 5.24 µM)”: the AUC is 0.987 and the IC50 is over 5.24 µM.
For “TGBC11TKB (stomach, adherent, top dose 5.24 µM)”, in that order: 0.992 and over 5.24 µM.
For “IST-SL2 (small cell lung carcinoma, suspension, top dose 5.24 µM)”, in that order: 0.974 and over 5.24 µM.
The matching figures for “G-401 (kidney, adherent, top dose 5.24 µM)”: 0.978 and over 5.24 µM.
In the case of “OVTOKO (ovary, adherent, top dose 5.24 µM)”, the AUC is 0.951 and the 50% inhibitory concentration (IC50) was over 5.24 µM.
The matching figures for “MDA-MB-361 (breast, adherent, top dose 5.24 µM)”: 0.988 and over 5.24 µM.
On to “RERF-LC-Sq1 (lung squamous cell carcinoma, adherent, top dose 5.24 µM)”, for which the AUC came out at 0.967 and the half-inhibitory concentration (IC50) is over 5.24 µM.
The matching figures for “DG-75 (Burkitt lymphoma, suspension, top dose 5.24 µM)”: 0.985 and over 5.24 µM.
The matching figures for “Farage (B-cell lymphoma, suspension, top dose 5.24 µM)”: 0.993 and over 5.24 µM.
On to “SW1271 (small cell lung carcinoma, adherent, top dose 5.24 µM)”, for which the AUC was found to be 0.971 and the half-maximal inhibitory concentration (IC50) was over 5.24 µM.
For CS1 (bone, adherent, top dose 5.24 µM), in that order: 0.983 and over 5.24 µM.
Regarding “COR-L88 (small cell lung carcinoma, adherent, top dose 5.24 µM)”, the AUC is 0.986 and the 50% inhibitory concentration (IC50) was over 5.24 µM.
Consider “HOP-92 (large cell lung carcinoma, adherent, top dose 5.24 µM)”, for which the AUC is 0.978 and the IC50 is over 5.24 µM.
With “BFTC-909 (kidney, adherent, top dose 5.24 µM)”, the AUC amounted to 0.988 and the concentration for half-maximal inhibition (IC50) is over 5.24 µM.
On to “SKG-IIIa (cervix, adherent, top dose 5.24 µM)”, for which the AUC was determined as 0.978 and the IC50 is over 5.24 µM.
In the case of “EFM-19 (breast, adherent, top dose 5.24 µM)”, the AUC stood at 0.956 and the 50% inhibitory concentration (IC50) was over 5.24 µM.
For “BEN (non-small cell lung carcinoma, adherent, top dose 5.24 µM)”, in that order: 0.983 and over 5.24 µM.
